Results: PubChem BioAssay AID1460 (National Center for Advancing Translational Sciences (NCATS), 2008)
Values joined by “and” are separate entries in the source; they are usually repeats but may differ in a detail not shown here. Equal values may be shown once. The whole screen tested about 270,000 compounds, of which about 5,800 (2.1%) were called active. The inconclusive results got no clear call from the source; some entries with a clear call stand among them for comparison. Calls follow the shape of the dose curve; as a rule, active = well fitted inhibition curve with a large enough effect; inconclusive = small, poorly fitted or top-dose-only effect; inactive = flat fitted curve, though single readings scatter. Potencies beside an inconclusive call are fits to weak or partial responses and may not hold up.
% is scaled to controls: 0 for no effect and ±100 for the full control effect; potency is read from the fitted curve at half-maximal effect; tags tell the direction and shape of the fitted curve.
Also: nearly all actives have a fitted effect of over 55% in size.

The compounds below were run against Microtubule-associated protein tau (Homo sapiens) (UniProt P10636) (assay: qHTS for Inhibitors of Tau Fibril Formation, Thioflavin T Binding). Conditions: recombinant tau K18 P301L (four-repeat tau fragment), heparin-induced fibrillization, ThT fluorescence; series mostly up to 57.4 µM; activity, negative = inhibition: at the top concentration.
UniProt P10636, sequence (P10636 whole entry, looked up, the tested form may be a part): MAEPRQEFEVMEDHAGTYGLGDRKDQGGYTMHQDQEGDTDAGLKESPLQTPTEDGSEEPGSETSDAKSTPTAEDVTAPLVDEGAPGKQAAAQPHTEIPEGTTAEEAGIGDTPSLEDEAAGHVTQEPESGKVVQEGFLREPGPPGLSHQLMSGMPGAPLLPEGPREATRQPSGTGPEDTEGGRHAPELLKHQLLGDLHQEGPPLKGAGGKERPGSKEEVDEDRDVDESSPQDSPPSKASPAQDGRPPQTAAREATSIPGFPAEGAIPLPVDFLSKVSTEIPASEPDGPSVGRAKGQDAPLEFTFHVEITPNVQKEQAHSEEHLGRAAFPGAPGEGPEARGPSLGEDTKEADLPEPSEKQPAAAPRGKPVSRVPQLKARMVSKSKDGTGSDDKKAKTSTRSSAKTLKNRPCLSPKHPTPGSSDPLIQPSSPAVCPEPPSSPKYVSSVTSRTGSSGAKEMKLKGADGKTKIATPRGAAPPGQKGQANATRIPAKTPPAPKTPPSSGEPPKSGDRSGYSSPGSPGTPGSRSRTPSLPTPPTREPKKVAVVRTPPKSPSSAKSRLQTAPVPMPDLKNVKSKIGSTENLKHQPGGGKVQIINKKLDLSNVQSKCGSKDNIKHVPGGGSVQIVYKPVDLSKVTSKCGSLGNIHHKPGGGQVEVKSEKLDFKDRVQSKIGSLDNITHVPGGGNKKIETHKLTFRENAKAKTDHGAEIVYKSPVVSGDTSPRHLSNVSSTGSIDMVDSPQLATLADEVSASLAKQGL
In short: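 Recombinant human tau K18 fragment […] carrying P301L, 15 uM unlabeled plus 0.24 uM Alexa 594-labeled, was fibrillized with 20 uM heparin in 100 mM sodium acetate pH 7 for 6 hr at 37 C; 30 uM ThT fluorescence read after 1 hr.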
With `O=C(CSc1ccccc1)N/N=C/c1ccccc1O` the “activity, negative = inhibition” value was inactive: 1.39%.
`COc1ccc(NC(=O)/C(C#N)=C\C=C\c2ccco2)cc1` was tested, and the Potency was active: 2.51 µM.
With `O=Cc1ccc(O)c(O)c1` the “activity, negative = inhibition” value was inactive: -15.3%.
In the case of `O=C1c2ccccc2C(=O)c2c1ccc1c(=O)n(C3CCCCC3)[nH]c21`, the Potency was inconclusive: 10 µM [inhibitor, partial curve].
`COCCCNC(=O)C(=O)NCC(c1ccc2c(c1)OCO2)N1CCOCC1` (stereo not given) was tested, and the “activity, negative = inhibition” value was inactive: 4.65%.
`COc1ccccc1N1CCN(c2ccc(=O)n(CC(=O)Nc3ccc(F)c(F)c3)n2)CC1` was tested, and the “activity, negative = inhibition” value was inactive: -11.4%.
`O=C1N=C(c2ccccc2)S/C1=C\c1cccs1` was tested, and the Potency was active: 7.94 µM.
In the case of `CCOC(=O)C1CCN(c2nc(N)c3c(N)nc(SCC(=O)O)cc3c2C#N)CC1`, the Potency was inconclusive: 17.8 µM [inhibitor, partial curve].
In the case of `CC(=O)C1=C(C)Nc2cc(C(F)(F)F)ccc2S1`, the Potency was inconclusive: 14.1 µM [inhibitor, partial curve].
In the case of `COc1ccccc1NC(=O)Cn1c(=O)n(-c2ccc(C)cc2)c(=O)c2ccc(C(=O)NCc3ccco3)cc21`, the “activity, negative = inhibition” value was inactive: 3.68%.
With `Cc1c(N=Nc2c(-c3ccc([N+](=O)[O-])cc3)[nH]n(C(N)=S)c2=O)cccc1[N+](=O)[O-]` the Potency was active: 8.91 µM.
`Cc1sc2cc3c(c(C(=O)c4ccccc4)[n+]2c1C)-c1cccc2cccc-3c12` was tested, and the Potency was inconclusive: 12.6 µM [inhibitor, partial curve].
For `CCN(CC)S(=O)(=O)c1cc(-c2nnc(Nc3ccc(OC)c(C(N)=O)c3)c3ccccc23)ccc1C`, the Potency was inconclusive: 25.1 µM [inhibitor, single point].
`NC1=NC(=O)/C(=C/c2cccs2)S1` was tested, and the “activity, negative = inhibition” value was inactive: -0.288%.
For `Cn1ccnc1SCC(=O)Nc1sccc1C#N`, the Potency was inconclusive: 22.4 µM [inhibitor, partial curve, poor fit].
In the case of `CNS(=O)(=O)c1cccc(C(=O)OCC(=O)Nc2ccc(-c3nc4ccc(C)cc4s3)cc2)c1`, the “activity, negative = inhibition” value was inactive: -0.225%.
For `COc1cc2ncc(-c3ccccc3)nc2cc1OC`, the Potency was inconclusive: 17.8 µM [inhibitor, partial curve, poor fit] and inconclusive: 39.8 µM [inhibitor, single point].
With `Cc1cc(C)nc(Nc2n[nH]c(COc3ccc4ccccc4c3)n2)n1` the Potency was inconclusive: 0.562 µM [inhibitor, full curve].
`Cc1ccc(N(C(=O)COc2ccccc2C)S(=O)(=O)c2ccc(Cl)cc2)cc1` was tested, and the Potency was inconclusive: 25.1 µM [inhibitor, partial curve].
`CCn1ncc2c(OCc3ccc(C#N)cc3)cc(C)nc21` was tested, and the Potency was inconclusive: 14.1 µM [inhibitor, single point].
With `CCC(C)/C(C)=N/NC(=O)c1ccc(CSc2nc3ccccc3s2)cc1` (stereo not given) the Potency was inconclusive: 3.98 µM [inhibitor, full curve].
For `Cc1nn(-c2ccccc2)c2sc(C(=O)OCc3nnc(-c4ccccc4)o3)cc12`, the Potency was inconclusive: 11.2 µM [inhibitor, partial curve].
With `O=C(CCCn1ncn2c(cc3occc32)c1=O)N1CCc2ccccc2C1` the Potency was inconclusive: 3.55 µM [inhibitor, full curve].
`CCN(CC)C(=O)/C(NC(=O)c1ccccc1)=C(/Sc1ncccn1)c1ccccc1` was tested, and the Potency was inconclusive: 12.6 µM [inhibitor, partial curve].
For `COc1cccc(C(=O)SC2=NCCS2)c1`, the Potency was inconclusive: 17.8 µM [inhibitor, partial curve].
`COC(=O)C(=C/C=C/c1ccco1)C(=O)OC` was tested, and the Potency was inconclusive: 28.2 µM [inhibitor, single point].
In the case of `Cc1nc2ccccc2nc(C)c1=NO`, the Potency was inconclusive: 28.2 µM [inhibitor, single point].
With `Cc1ccccc1-n1c(=S)[nH]c2nc3c(cc2c1=O)CCCC3` the Potency was inconclusive: 39.8 µM [inhibitor, single point].
For `Cn1nc([N+](=O)[O-])nc1Sc1nnc(-c2ccccc2)o1`, the Potency was inconclusive: 22.4 µM [inhibitor, single point].
With `CC1C/C(=N/Nc2ccc([N+](=O)[O-])cc2[N+](=O)[O-])CC(C)(C)C1` (stereo not given) the Potency was inconclusive: 11.2 µM [inhibitor, partial curve].
With `Cc1ccc(C(=O)/C=C/c2ccc(Br)cc2)o1` the Potency was inconclusive: 10 µM [inhibitor, partial curve].
For `Cc1cc(C(=O)N/N=C/c2ccc(-c3cccc(Cl)c3)o2)n[nH]1`, the Potency was inconclusive: 2.82 µM [inhibitor, full curve, poor fit].
With `CC(=O)CSc1nnc(CN2C(=O)CSc3ccc(C(F)(F)F)cc32)n1C` the “activity, negative = inhibition” value was inactive: -0.967%.
With `Cc1[nH]c2ccccc2c1/C=N\NC(=O)CNc1ccc2c(c1)OCO2` the Potency was active: 15.8 µM.
With `O=C(Nc1ccc(N2CCN(C(=O)c3ccco3)CC2)cc1)c1ccc(F)cc1` the Potency was inconclusive: 2.82 µM [inhibitor, partial curve].
With `CCn1cc(S(=O)(=O)CC(=O)Nc2ccc3c(c2)OCCO3)c2ccccc21` the “activity, negative = inhibition” value was inactive: -17.2%.
In the case of `O=C(NCc1ccc(Cl)cc1)C1CCCN(C(=O)c2cnn(-c3ccc(F)cc3)c2-n2cccc2)C1` (stereo not given), the “activity, negative = inhibition” value was inactive: -7.86%.
`CC(C)C[C@H](NC(=O)c1nc[nH]c1C(=O)N1CCC(C)CC1)C(=O)OC(C)(C)C` was tested, and the “activity, negative = inhibition” value was inactive: -0.541%.
In the case of `Cc1ccc(C(=O)Nc2nnc(C)s2)cc1`, the “activity, negative = inhibition” value was inactive: -7.53%.
In the case of `COC(=O)c1[nH]c2ccccc2c1NC(=O)CN1CCN(C/C=C/c2ccccc2)CC1`, the Potency was inconclusive: 31.6 µM [inhibitor, partial curve].
For `Nc1ccc(-c2cc(-c3cccc(N)c3)nc(-c3ccccc3)n2)cc1`, the Potency was inconclusive: 3.16 µM [inhibitor, full curve, poor fit].
`COc1cc(OC)c(C2Nc3ccccc3-c3nnc(SCc4ccccc4)nc3O2)cc1OC` (stereo not given) was tested, and the Potency was inconclusive: 44.7 µM [inhibitor, single point].
For `N#C/C(=C\c1ccc(OCc2ccccc2)cc1)C(N)=O`, the Potency was inconclusive: 11.2 µM [inhibitor, partial curve].
In the case of `Cc1csc(N/N=C/c2ccccn2)n1`, the Potency was inconclusive: 25.1 µM [inhibitor, partial curve].
For `CCc1cc2c(cc3c(=O)n(CC(=O)NCCc4ccc(OC)c(OC)c4)ncn32)s1`, the Potency was inconclusive: 39.8 µM [inhibitor, single point].
For `NS(=O)(=O)c1ccc(NC(=O)/C=C/c2ccccc2[N+](=O)[O-])cc1`, the Potency was inconclusive: 11.2 µM [inhibitor, partial curve].
With `Fc1ccc(-c2n[nH]c(=S)n2CC2CCCO2)cc1` (stereo not given) the “activity, negative = inhibition” value was inactive: -0.629%.
With `OC(CNCCC1C=Nc2ccccc21)Cn1c2ccc(Cl)cc2c2cc(Cl)ccc21` (stereo not given) the Potency was inconclusive: 2 µM [inhibitor, single point].
With `CS(=O)(=O)N1CCc2cc(C(=O)N3CCOCC3)ccc21` the “activity, negative = inhibition” value was inactive: -10.1%.
With `O=C(/C=C/c1ccccc1Cl)c1ccccc(=O)c1O` the Potency was active: 14.1 µM.
For `CCC1CCc2nc3sc(C(=O)Nc4ccc(F)c(Cl)c4)c(N)c3cc2C1` (stereo not given), the Potency was inconclusive: 0.316 µM [inhibitor, full curve].
`CCC(C(=O)Nc1ccccc1C(=O)OC)n1nc(C)c2c(C)n(-c3ccc(C)cc3)nc2c1=O` (stereo not given) was tested, and the “activity, negative = inhibition” value was inactive: -7.44%.
In the case of `O=C(c1ccco1)N1N=C(c2cccs2)CC1c1ccc(F)cc1` (stereo not given), the “activity, negative = inhibition” value was inactive: -2.05%.
`C/C(CC(=O)Nc1ccc(N(C)C)cc1)=N\NC(=O)c1ccc([N+](=O)[O-])cc1Cl` was tested, and the Potency was inconclusive: 17.8 µM [inhibitor, partial curve].
With `Cc1ccc(S(=O)(=O)N2CCN(CC(=O)N/N=C/c3cc([N+](=O)[O-])ccc3Cl)CC2)cc1` the Potency was inconclusive: 17.8 µM [inhibitor, single point].
`Cc1ccc(/C=C/C(=O)c2nc3ccccc3[nH]2)cc1` was tested, and the Potency was inconclusive: 14.1 µM [inhibitor, partial curve].
With `CC(C)NC(=O)CN1C(=O)C(=O)c2ccccc21` the “activity, negative = inhibition” value was inactive: -9.48%.
For `Cc1cccc(NC(=S)N=Nc2c(O)n(CN3CCOCC3)c3ccccc23)c1C`, the Potency was inconclusive: 5.01 µM [inhibitor, partial curve].
With `Cc1ccccc1OCc1nc(-c2ccccc2)no1` the Potency was inconclusive: 28.2 µM [inhibitor, single point].
With `CCCCC(=O)Nc1ccc(C(=O)Nc2nc(CC(=O)OCC)cs2)cc1` the Potency was inconclusive: 17.8 µM [inhibitor, partial curve].
`CCOC(=O)c1c(C)[nH]c(C)c1C(=O)COC(=O)C1CCCN1S(=O)(=O)c1ccccc1F` (stereo not given) was tested, and the “activity, negative = inhibition” value was inactive: -8.21%.
For `O=C(Cn1c(=O)c2cc(Cl)ccc2n2nncc12)Nc1ccccc1`, the “activity, negative = inhibition” value was inactive: 4.7%.
With `NNC(=O)CSCc1nc(-c2ccc(Cl)cc2)cs1` the “activity, negative = inhibition” value was inactive: -17.3%.
With `COC(=O)c1ccc(C(=O)NC(=S)Nc2nc3c(s2)CCCC3)cc1` the Potency was inconclusive: 2.51 µM [inhibitor, full curve].
For `O=C(NCCc1c[nH]c2ccccc12)c1cc2ccccc2oc1=O`, the Potency was inconclusive: 7.08 µM [inhibitor, partial curve].
For `CC(C)=C1C(=O)NN(c2ccc(C)c(Cl)c2)C1=O`, the Potency was inconclusive: 25.1 µM [inhibitor, partial curve].
`O=C(NCc1ccc(-c2nc3ccccc3s2)cc1)c1ccco1` was tested, and the “activity, negative = inhibition” value was inactive: -3.19%.
For `CCc1ccc(NC(=O)c2sc3nc(C)c(Cl)c(C)c3c2N)cc1`, the Potency was inconclusive: 0.0447 µM [inhibitor, full curve, poor fit].
With `COc1ccc(/C=N\NC(=O)c2sc(N)nc2C)cc1OC` the Potency was inconclusive: 20 µM [inhibitor, partial curve].
`CCOC(=O)c1sc(=S)n(-c2ccccc2)c1N(C(C)=O)C(C)=O` was tested, and the Potency was inconclusive: 22.4 µM [inhibitor, partial curve, poor fit].
